Measurements taken from PubChem BioAssay AID588855 (National Center for Advancing Translational Sciences (NCATS), 2011).
About 5,000 (1.2%) of roughly 410,000 compounds were called active. Inconclusive results, whose numbers are uncertain, are shown with a selection of clear calls. The call rests on the fitted dose curve; in most records, active means well fitted inhibition curve with a large enough effect; inconclusive means small, poorly fitted or top-dose-only effect; inactive means no such curve, though single readings can be large or run the other way. Potencies of inconclusive entries are doubtful fits and often do not repeat.

Experiment: qHTS for Inhibitors of TGF-b; further: nearly all actives have a fitted effect of over 65% in size
Conditions: HepG2 CAGA-GFP TGF-b/SMAD3 reporter, GFP fluorescence, 18 h, TGF-beta stimulated, 500 pg/mL final; series mostly up to 46.1 µM
Outline: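 First, reporter cells (HEPG2 CAGA-GFP) rested 2 h at 37 degrees C. Next, compounds were pinned in and TGF-beta added to 500 pg/mL final. After 18 h, GFP was imaged per cell and summed per well.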
Potency means the concentration at half of the fitted maximal effect; tags describe the fitted curve by direction and shape.

Row | Structure (SMILES) | Potency
1 | C#CCOCCOCCOCCNc1nc(N2CCOCC2)nc(N2CCN(C(=O)CCCCCCCCCCNC(=O)[C@@H]([C@H](C)O)n3cc(C)nn3)CC2)n1 | inactive
2 | OCc1cccc[n+]1Cc1ccccc1 | inactive
3 | COc1ccc(CNC(=O)c2cn(Cc3ccc(S(=O)(=O)N(C)C)cc3)c(=O)s2)cc1 | inactive
4 | COC(=O)c1ccc(/C=N/Nc2nc(N3CCCCC3)nc(N3CCCCC3)n2)cc1 | inconclusive: 3.55 µM [inhibitor, partial curve, poor fit]
5 | CN(C)S(=O)(=O)c1cccc(NC(=O)c2cccc(NS(=O)(=O)c3ccccc3)c2)c1 | inconclusive: 17.8 µM [inhibitor, single point]
6 | CCS(=O)(=O)c1ncc(Cl)c(C(=O)N2CCN(c3cccc(Cl)c3)CC2)n1 | active: 1 µM
7 | Cn1c(SCc2ccc(Br)cc2)nc2ccccc2c1=O | inconclusive: 35.5 µM [inhibitor, single point]
8 | O=C(c1ncc[nH]1)c1ccccc1C(=O)N1CCOCC1 | inconclusive: 35.5 µM [inhibitor, partial curve, poor fit]
9 | CCc1nc(N2CCN(C(=S)NCCCOC)CC2)c2c3c(sc2n1)CCCC3 | inconclusive: 35.5 µM [inhibitor, single point]
10 | Cc1cnc(C(=O)Nc2ccc(-n3cnnn3)cc2)cn1 | inactive
11 | COc1ccc(S(=O)(=O)NCCCCC(=O)O)cc1C(=O)O | inconclusive: 22.4 µM [inhibitor, single point]
12 | CC1CN(c2oc(Cc3cccc4ccccc34)nc2C#N)CC(C)O1 (centres undefined) | inconclusive: 6.31 µM [inhibitor, single point]
13 | CCOc1ccc(S(=O)(=O)NNS(=O)(=O)c2ccc(C)cc2C)cc1 | inactive
14 | CCC(=O)OCC(=O)Nc1ccc(OC)cc1[N+](=O)[O-] | inactive
15 | C=CC[C@]12CC=CC(=O)[C@@]1(O)O[C@H](c1ccc(OC)c(OC)c1)[C@H]2C | inconclusive: 15.8 µM [inhibitor, single point]
16 | O=c1cc(-c2cccnc2)oc2c1ccc1ccccc12 | inconclusive: 22.4 µM [inhibitor, partial curve, poor fit]
17 | O=S(=O)(Nc1ccc2nc(-c3cccc(Cl)c3)oc2c1)c1ccccc1 | inconclusive: 14.1 µM [inhibitor, partial curve, poor fit]
18 | COc1ccccc1CCc1nnc(CCC(=O)NCCCOc2cccnc2)o1 | inconclusive: 35.5 µM [inhibitor, single point]
19 | O=C(Nc1ccccc1)c1cccc(S(=O)(=O)Nc2cccc(F)c2)c1 | inconclusive: 25.1 µM [inhibitor, single point]
20 | CCOC(=O)C[C@H]1c2cc(F)ccc2S(=O)(=O)N1C(C)(C)C | inconclusive: 7.08 µM [inhibitor, partial curve, poor fit]
21 | CC(=O)/C=C/c1ccccc1Oc1c(F)c(F)nc(F)c1F | inconclusive: 35.5 µM [inhibitor, single point]
22 | COc1ccc(NC(=O)Cn2nnc(-c3ccccc3)c2COc2ccc3ccccc3c2)cn1 | inconclusive: 14.1 µM [inhibitor, single point]
23 | COc1cccc(-c2ccc3c(N)c(C(=O)NCc4ccc(Cl)cc4)sc3n2)c1 | inconclusive: 12.6 µM [inhibitor, partial curve, poor fit]

Row | Structure (SMILES) | Potency
24 | O=C(NCCOc1nc(N2CCOCC2)nc(N2CCOCC2)n1)Nc1ccc(Cl)cc1 | inactive
25 | CCOc1ccc(NC(=S)N(CCCN2CCCC2)Cc2cccn2Cc2ccc(Cl)cc2)cc1 | inactive
26 | COc1cc(C(CCN2CCCCC2)c2c(OC)cc(OC)c3c2OC(=O)CC3c2ccc(N(C)C)cc2)cc(OC)c1OC (centres undefined) | inconclusive: 11.2 µM [inhibitor, partial curve, poor fit]
27 | O=C(c1ccccc1)c1cc(Cl)ccc1N1C(=O)C=CC1=O | inconclusive: 12.6 µM [inhibitor, single point]
28 | Cc1ccc(-c2cc3ccccc3nc2N)cc1 | inconclusive: 35.5 µM [inhibitor, single point]
29 | COc1cccc(NC(=S)NCc2ccccc2)c1 | inactive
30 | CCOC(=O)CNC(=O)C1CCCCC1 | inactive
31 | O=C1NC(c2ccccn2)Nc2sc3c(c21)CCC3 (centres undefined) | inconclusive: 5.62 µM [inhibitor, single point]
32 | CN(C(=O)C(=O)Nc1ccc2nc3n(c(=O)c2c1)CCCCC3)c1cccc(C(F)(F)F)c1 | inconclusive: 15.8 µM [inhibitor, single point]
33 | CCOC(=O)c1ccc(NC(=O)CSc2nc3c(c(=O)n2C)SC(C)C3)cc1 (centres undefined) | inconclusive: 6.31 µM [inhibitor, partial curve]
34 | COc1cc(/C=N/n2c(-c3ccc4c(c3)NC(=O)CO4)csc2=Nc2cccc(C)c2)ccc1O | inconclusive: 35.5 µM [inhibitor, single point]
35 | CC1=C(C(=O)OC2CCCCC2)C(c2ccc(F)cc2)NC(=O)N1 (centres undefined) | inactive
36 | Cc1onc(-c2ccc(F)cc2F)c1C(=O)Nc1cccc(C(F)(F)F)c1 | active: 12.6 µM
37 | O=C(Nc1ccc(O)cc1)c1ccc(NC(=O)c2ccco2)cc1 | inconclusive: 35.5 µM [inhibitor, single point]
38 | CCC(CO)Oc1cc(NCc2ccc(C(C)(C)C)cc2)c2ncn(C(C)C)c2c1 (centres undefined) | inconclusive: 35.5 µM [inhibitor, partial curve, poor fit]
39 | COc1cc(C)c(/C=C(\C#N)C(=O)Nc2ccc(C)cc2)cc1C(C)C | inactive
40 | COc1ccccc1-c1nnc(C2CCN(S(=O)(=O)c3ccc([N+](=O)[O-])cc3)CC2)o1 | inactive
41 | CCCN(C)C[C@H]1Oc2cc(C#Cc3ccc(F)cc3)ccc2S(=O)(=O)N([C@H](C)CO)C[C@@H]1C | inconclusive: 35.5 µM [inhibitor, single point]
42 | CCOc1ccccc1/C=N/OCC(=O)NCc1ccc(F)cc1 | inactive
43 | CC(=O)NO | inactive
44 | Nc1nc2ccccc2n1CCOc1ccc(Br)cc1 | inconclusive: 35.5 µM [inhibitor, single point]
45 | COc1ccccc1C1CC(=O)Nc2cc3c(cc21)OCCO3 (centres undefined) | inconclusive: 12.6 µM [inhibitor, partial curve]
46 | Nc1ncnc2c1ncn2[C@@H]1O[C@H](CNCc2ccc(OCC(=O)Nc3ccccn3)cc2)[C@@H](O)[C@H]1O | inactive

Row | Structure (SMILES) | Potency
47 | O=C(CSc1cccc[n+]1[O-])c1ccc(-c2ccccc2)cc1 | inconclusive: 35.5 µM [inhibitor, single point]
48 | CCCCCOc1ccc(/C=C/C(=O)Nc2sc(C(C)=O)c(C)c2C(=O)OCC)cc1OC | inactive
49 | O=C(CC(O)(CC(=O)OCc1ccccc1)C(=O)OCc1ccccc1)OCc1ccccc1 | inconclusive: 35.5 µM [inhibitor, single point]
50 | O=C(CNC(=O)C(c1ccccc1)c1ccccc1)N/N=C/c1ccc(O)cc1O | inconclusive: 2.82 µM [inhibitor, full curve, poor fit]
51 | Cc1ccc(S(=O)(=O)NC(CCc2ccccc2)CC(=O)C(C)(C)C)cc1 (centres undefined) | inconclusive: 35.5 µM [inhibitor, partial curve, poor fit]
52 | O=C(Cc1ccccc1)Nn1c(-c2ccccc2F)nc2ccccc2c1=O | inconclusive: 3.98 µM [inhibitor, single point]
53 | COc1ccc(-n2nnnc2C(c2ccnc3ccccc23)N2CCN(C/C=C/c3ccccc3)CC2)cc1 (centres undefined) | inconclusive: 17.8 µM [inhibitor, partial curve, poor fit]
54 | Cn1c(SCc2nnc(-c3ccc(F)cc3)o2)nnc1C1COc2ccccc2O1 (centres undefined) | inactive
55 | C1=C(c2ccccc2)Nc2ncnn2C1c1ccccc1 (centres undefined) | inconclusive: 8.91 µM [inhibitor, partial curve, poor fit]
56 | Oc1ccc(C[C@H]2CNCCN2CCc2cccc3ccccc23)cc1 | inconclusive: 35.5 µM [inhibitor, single point]
57 | COc1ccc(CC(=O)N/N=C(\C)c2cccc(NC(=O)C3CC3)c2)cc1 | inactive
58 | COc1ccc(NC(=O)C2CCCN(S(=O)(=O)c3ccc4c(c3)CCCN4C(C)=O)C2)cc1Cl (centres undefined) | inconclusive: 35.5 µM [inhibitor, single point]
59 | Cn1cc(S(=O)(=O)N2CCCCCC2)cc1C(=O)NCc1ccccc1Cl | active: 5.01 µM
60 | CCCCNc1nc2ccccc2[nH]1 | inconclusive: 1.26 µM [inhibitor, full curve, poor fit]
61 | Cc1cc(C)c2c(c1)/C(=c1/sc3n(c1=O)CN(c1ccccc1)CN=3)C(=O)N2 | inactive
62 | Cc1c(/C=N/NC(=O)COc2ccccc2[N+](=O)[O-])c2ccccc2n1C | inconclusive: 35.5 µM [inhibitor, single point]
63 | CC(=O)NC1CCCC(NC(C)=O)C1 (centres undefined) | inactive
64 | CCOC(=O)c1cc(-c2ccccc2)n(CCC(=O)Nc2ccc(Cl)c(C(F)(F)F)c2)c1C | active: 3.55 µM
65 | CSc1nsc(/C=C/Nc2ccc(F)cc2)c1C#N | inconclusive: 35.5 µM [inhibitor, single point]
66 | Cc1nn(C)c2c1c(C(F)(F)F)cc(=O)n2Cc1cccc(Br)c1 | inactive
67 | CN(CC(=O)N1CCN(c2cccc(Cl)c2)CC1)S(=O)(=O)c1cnc[nH]1 | inactive
68 | Cc1ccc(S(=O)(=O)N(C(=O)c2ccncc2)c2ccc(OC(=O)c3ccncc3)c3ccccc23)c(C)c1 | inconclusive: 2.24 µM [inhibitor, full curve, poor fit]
69 | C#CCOCCOCCOCCNc1nc(N2CCN(C(=O)[C@H](Cc3cc4ccccc4[nH]3)n3cc([C@@H](N)CC(C)C)nn3)CC2)nc(N2CCN(C(=O)[C@H](Cc3cc4ccccc4[nH]3)n3cc([C@@H](N)CC(C)C)nn3)CC2)n1 | inactive
